Data from patent US6793917.
These are yes or no findings as the source states them, for the method shown. Some results given as binding are weak or reduced against the parent protein; the word gives no strength. Each block holds one substance with its values, some of them ahead of it.

Chains of the proteins cited; added tags and fusions are not shown. Lines headed by an entry give the natural chain unless they say otherwise; changes in a name come on top. Residues count along the entry.
UniProt P13500, residues 24-99: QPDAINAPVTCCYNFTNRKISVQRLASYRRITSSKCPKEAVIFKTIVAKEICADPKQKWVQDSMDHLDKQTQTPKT
UniProt P13236, residues 24-92: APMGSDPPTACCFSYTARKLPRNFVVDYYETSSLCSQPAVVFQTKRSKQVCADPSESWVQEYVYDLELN
UniProt P13501, residues 24-91: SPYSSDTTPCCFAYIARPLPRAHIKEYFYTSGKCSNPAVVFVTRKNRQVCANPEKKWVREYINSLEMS
UniProt Q92583: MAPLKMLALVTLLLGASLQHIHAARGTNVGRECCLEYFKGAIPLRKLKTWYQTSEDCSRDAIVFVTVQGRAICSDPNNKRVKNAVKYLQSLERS
UniProt P78556, residues 27-96: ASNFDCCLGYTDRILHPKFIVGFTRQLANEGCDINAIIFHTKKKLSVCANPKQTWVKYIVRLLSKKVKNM
UniProt P10147, residues 23-92: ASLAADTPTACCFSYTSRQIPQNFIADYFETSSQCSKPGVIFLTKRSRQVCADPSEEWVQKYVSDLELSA

Assays:
[1] = target: T1, CCR4 expressed on 293/EBNA-1 cells (human) (UniProt P51679); test: competition with 1 nM TARC-SEAP on 293/EBNA-1 cells expressing CCR4
T1 sequence (looked up): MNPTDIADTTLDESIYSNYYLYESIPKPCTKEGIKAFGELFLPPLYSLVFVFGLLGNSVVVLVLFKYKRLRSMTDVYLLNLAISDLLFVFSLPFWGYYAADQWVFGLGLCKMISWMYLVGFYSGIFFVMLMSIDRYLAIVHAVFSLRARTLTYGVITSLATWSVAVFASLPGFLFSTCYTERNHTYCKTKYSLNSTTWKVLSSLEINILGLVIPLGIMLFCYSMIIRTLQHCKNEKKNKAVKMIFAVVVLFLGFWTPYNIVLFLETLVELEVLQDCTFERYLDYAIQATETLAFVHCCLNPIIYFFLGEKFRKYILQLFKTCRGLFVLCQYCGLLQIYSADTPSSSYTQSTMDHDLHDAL

[2] = target: T2, Duffy antigen/receptor for chemokine (DARC) on erythrocytes (UniProt Q16570); test: displacement of 0.66 nM 125I-labeled TARC from 10^8 erythrocytes
T2 sequence (looked up): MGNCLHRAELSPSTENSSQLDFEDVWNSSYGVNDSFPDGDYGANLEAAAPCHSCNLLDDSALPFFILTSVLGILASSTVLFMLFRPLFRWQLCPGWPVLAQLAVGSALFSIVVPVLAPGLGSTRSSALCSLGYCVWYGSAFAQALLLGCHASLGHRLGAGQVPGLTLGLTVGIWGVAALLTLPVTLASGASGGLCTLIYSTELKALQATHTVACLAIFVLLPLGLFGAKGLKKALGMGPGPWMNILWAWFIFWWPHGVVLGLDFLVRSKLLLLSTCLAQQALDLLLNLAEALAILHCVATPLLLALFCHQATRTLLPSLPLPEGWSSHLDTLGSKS

[3] = target: T2, Duffy antigen/receptor for chemokine (DARC) on erythrocytes; test: displacement of 125I-labeled TARC from erythrocytes

Substance: MCP-1 (PeproTech) (from UniProt P13500 24-99) (ligand)
binding [1]: no binding (tested: 200 nM)

Substance: MIP-1β (PeproTech) (from UniProt P13236 24-92) (ligand)
binding [1]: no binding (tested: 200 nM)

Substance: RANTES (PeproTech) (from UniProt P13501 24-91) (ligand)
binding [2]: binds

Substance: human TARC (Thymus and Activation-Regulated Chemokine), mature secreted form, expressed in and purified from insect cells (from UniProt Q92583 24-94) (ligand)
binding [3]: binds

Further lines, results first:

binding [1]: no binding (tested: 200 nM)
Substance: LARC (from UniProt P78556 27-96) (ligand)

binding [1]: no binding (tested: 200 nM)
Substance: MIP-1α (PeproTech) (from UniProt P10147 23-92) (ligand)
